Measured values from the supplement of paper PMC11417369.
± gives the standard deviation of the averaged measurements. This is one part of the list.

Tested on: PfAP2-I AP2 domain 3 (GST-tagged)
Test: gcPBM binding intensity (ln(normalized median fluorescence intensity)); higher = stronger DNA binding
Method in brief: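 Binding intensity is the highest Masliner-normalised natural-log median intensity over replicate spots in either probe orientation. To obtain it, GST-tagged P. falciparum DNA-binding domains made in E. coli were incubated for 1 h on an Agilent 4 × 180k array of primer-extended double-stranded 36-bp intergenic genomic probes plus negative controls. Detection used Alexa488 anti-GST antibody with scanning at 488 nm.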

Row | Sequence | gcPBM binding intensity (ln)
1 | TTTTTTTTTGAATATTGTACATATATATTACTTTTA [XGTACX_site5520] | 7.7 ± 0.66
2 | AAAAAATTATATAAATGTACATTTTGGCTAGACATG [XGTACX_site5977] | 7.68 ± 0.57
3 | AAAGAGAACAGAAGTACACACATGTTCTTTTAGTAA [CACACA_site5557] | 7.59 ± 0.49
4 | ATATTCTGCTGTTTAGTGCAATTATGAAATTATGAT | 9.85 ± 0.23
5 | TTTTTTTTTCTTTGGTGTACAATGTAATAGAAAATA [XGTACX_site227] | 8.11 ± 0.31
6 | AAAAAAAACAAACACACACACAAATATTTATATATT [CACACA_site436] | 7.55 ± 0.58
7 | TAAAAAGAAATGTAAAGTACAAATTTGAATAACATG [XGTACX_site7981] | 7.69 ± 0.59
8 | TAAAAAATAAAAATTGCACACTAAAAAATTACCCAC [CACACA_site5823] | 8.8 ± 0.33
9 | TTGATTTTTATTTTTAAAATAAATAAATTTCAAATG [TGCATGCA_negctrl_site199] | 7.35 ± 0.37
10 | ATATGTATTTATATATGTTTGATTTTTTTTTTTTTT [TGCATGCA_negctrl_site506] | 7.71 ± 0.26
11 | CATACAGACATACATACACACATACCTATAAATATA [CACACA_site6995] | 7.95 ± 0.39
12 | AAATGAAATAAAATCATATATTTATAATTATTATAA [TGCATGCA_negctrl_site612] | 7.27 ± 0.41
13 | AGGAAAAAAGAAAAAACACACATAAATATATATATA [CACACA_site3085] | 9.045 ± 0.021
14 | AAAAAACACGCACATACACACAAAAATGTTATAAAT [CACACA_site6188] | 8.2 ± 0.38
15 | ATCTCATAAAACCGCACACACATAAAATTTGCATTA [CACACA_site3891] | 8.56 ± 0.31
16 | TTATATTTTTTAATTACACACAATTTTTATAAATAT [CACACA_site4148] | 7.69 ± 0.45
17 | CTAGTAAAAAATGCAAGTACATACATTATAAGTATA [XGTACX_site3908] | 7.67 ± 0.47
18 | ATATTGGAGCACAACACACACAAGTATAAATATGGA [CACACA_site6834] | 8.39 ± 0.15
19 | ATTTCATATACAAATTGTACATACAATTTTATGTTT [XGTACX_site3240] | 7.7 ± 0.54

Row | Sequence | gcPBM binding intensity (ln)
20 | TTAAAAATAATATTATGTACTAAGAATAAATATATA [XGTACX_site3100] | 7.62 ± 0.4
21 | TCTTGTAAATATATGTGTATATTATATTTTATTATA [TGCATGCA_negctrl_site117] | 7.41 ± 0.48
22 | TGTTAAAATAAAATCTATTACATTTTTATGGTTATA [XGTACX_negctrl_site525] | 7.18 ± 0.46
23 | TGCAAGGAAAAACACACACACACATAAATGTATATA [CACACA_site751] | 7.66 ± 0.45
24 | CTTAATATTCTTTAAAGTACACAAAATAAGAATATA [XGTACX_site5489] | 7.79 ± 0.21
25 | AATATATATATATTCACACATAAAAAAGTAAAAAAA [CACACA_site5040] | 7.83 ± 0.71
26 | CACACGCACGAACACACACACACACGCATATAAATA [CACACA_site6302] | 8.54 ± 0.2
27 | TATCTCATAGTATACACACACACACCCACCCATATA [CACACA_site1739] | 8.38 ± 0.54
28 | AGCTCTTGTCATTTTGCACACACACCCGTATAGGTT [CACACA_site3056] | 9.535 ± 0.078
29 | TCTTTTTTTTTTAAACGTACATTGCATTATCACGTA [XGTACX_site6873] | 8.53 ± 0.68
30 | ATCCATTATTTTTGTTGTACGGGTAACTTTAAAAAG [XGTACX_site2226] | 8.05 ± 0.48
31 | AAAAGGGAAATAAAATAAAAAAAGAAACATATATAG [CACACA_negctrl_site455] | 7.72 ± 0.76
32 | GATTCTTCACCGTACTCACACATATATATATATATA [CACACA_site5665] | 9.41 ± 0.29
33 | TAATTATATGTATACACACACATACATTTACATAAC [CACACA_site3238] | 7.94 ± 0.59
34 | TTAATTTCTATATACGCATGTATGAATAAGATATTG [TGCATGCA_site202] | 7.42 ± 0.49
35 | ATTTTTTTATAAGAAAATTTCTAACGTTAAAAAAAA [CACACA_negctrl_site1367] | 7.51 ± 0.53
36 | CAAACAAACAAATATACACACTTTTGTATAAAGTAA [CACACA_site5860] | 7.42 ± 0.49
37 | TATAATTATATATATAGTACAGATTTGTTATGTTTA [XGTACX_site7724] | 7.54 ± 0.26
38 | TATCATTTCATATCAAGTACAAACATTTTACATATA [XGTACX_site5307] | 7.84 ± 0.57

Row | Sequence | gcPBM binding intensity (ln)
39 | TTTTAATTAAGACACACACACACATATAAATATGTA [CACACA_site7144] | 8.12 ± 0.35
40 | ATAATAATATATATTGTACACACAAAATGGGAAAAA [CACACA_site8568] | 8.16 ± 0.66
41 | TATATATATATAATAGTGCATAAATAAATATATAAA | 11.2 ± 0.45
42 | ATTAAGACACATTGCACACGTGCACCCATAGAAAAA [CACACA_site408] | 11.02 ± 0.099
43 | TGAAAAAGGAAAAAAAAAAAAAAAAAAAAAACGAAA [GTGCAC_negctrl_site555] | 7.5 ± 0.52
44 | TATTTATTATTAAGATGTACATAAAACACTGAATAA [XGTACX_site4246] | 8.16 ± 0.12
45 | GACCATATGAATAATGCACACGTTTTAAAATATTAA [CACACA_site5312] | 10.6 ± 0.51
46 | GGGAAAATATTTGGGTGTACAAACAAATTAGCTAGC [XGTACX_site6795] | 8.21 ± 0.49
47 | TATGATTTCACATAATGTACTTGCTAATTCGTGAAT [XGTACX_site1408] | 7.51 ± 0.54
48 | ATATAAATAAACAGGTGTACTATAATGTTCATAGTA [XGTACX_site1553] | 7.84 ± 0.57
49 | AAGAAAATATAAAATGCACACTATAAATTGTATTTA [CACACA_site4257] | 8.75 ± 0.16
50 | TAATTATATATATATGCATGTTATAATTTTTATTTT [TGCATGCA_site78] | 7.68 ± 0.59
51 | TCTTTAACAAGTTAAACACACATACATAAATACATA [CACACA_site5406] | 7.76 ± 0.5
52 | TTATGTCATAAATGCACACATATACATTGTTTTGAT [CACACA_site646] | 9.74 ± 0.27
53 | TATTATAAAAATATTCAGATACATTAACTTACTTTT [XGTACX_negctrl_site4] | 7.17 ± 0.52
54 | TATTTGCTACATATATGTACTAAAAACTTTTTGCTT [XGTACX_site2362] | 7.83 ± 0.45
55 | TGTGTGTGTTCATGGGTGCTTTAATACTATTATAGG [GTGCAC_site9465] | 11 ± 0.61
56 | TATCAATTTTTCTGGCTATCCAATTAGGGGAAGCCA [CACACA_negctrl_site1045] | 7.2 ± 0.46
